According to the supplement of paper PMC3334620:
Whole data set: some 33,000 sequences, median “E-score (-0.5 to 0.5)” near -0.043, cut for the highest 2% near 0.37. Some of the results follow.

Target: T1, Upc2 (UniProt Q12151)
T1 sequence: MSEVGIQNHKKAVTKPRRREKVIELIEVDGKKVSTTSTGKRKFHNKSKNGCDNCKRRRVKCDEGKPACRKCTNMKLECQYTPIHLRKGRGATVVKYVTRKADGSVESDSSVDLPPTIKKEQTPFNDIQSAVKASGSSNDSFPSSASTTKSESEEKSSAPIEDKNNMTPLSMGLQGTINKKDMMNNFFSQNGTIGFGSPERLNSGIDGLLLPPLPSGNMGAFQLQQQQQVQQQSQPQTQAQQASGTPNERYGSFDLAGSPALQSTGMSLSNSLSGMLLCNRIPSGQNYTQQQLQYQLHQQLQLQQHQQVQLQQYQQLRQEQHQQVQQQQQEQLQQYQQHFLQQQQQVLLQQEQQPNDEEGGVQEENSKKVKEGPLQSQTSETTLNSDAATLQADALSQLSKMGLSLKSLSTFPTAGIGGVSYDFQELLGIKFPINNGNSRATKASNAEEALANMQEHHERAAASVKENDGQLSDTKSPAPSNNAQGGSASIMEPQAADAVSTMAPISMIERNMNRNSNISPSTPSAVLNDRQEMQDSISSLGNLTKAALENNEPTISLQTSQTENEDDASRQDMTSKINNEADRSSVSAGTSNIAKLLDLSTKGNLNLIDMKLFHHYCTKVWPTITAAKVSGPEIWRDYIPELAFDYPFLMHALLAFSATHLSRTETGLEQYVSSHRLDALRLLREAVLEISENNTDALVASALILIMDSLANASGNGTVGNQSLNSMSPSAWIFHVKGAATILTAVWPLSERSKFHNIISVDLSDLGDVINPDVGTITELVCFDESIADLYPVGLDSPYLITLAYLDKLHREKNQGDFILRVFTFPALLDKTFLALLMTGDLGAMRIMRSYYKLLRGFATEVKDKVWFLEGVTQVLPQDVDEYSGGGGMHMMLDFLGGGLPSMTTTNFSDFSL
Assay: PBM E-score (8-mer binding enrichment) (E-score (-0.5 to 0.5)); higher = stronger / more preferred TF binding; most listed sequences are background and not binding sites
Conditions: protein concentration: 200 nM; construct: GST-full length
Method: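 Universal 'all 10-mer' protein binding microarrays (Agilent AMADID 015681) probed with GST-tagged S. cerevisiae TFs (full-length or DBD) made by in vitro transcription/translation (PURExpress), about 100-200 nM. Bound TF was detected with fluorescent anti-GST. Each ungapped 8-mer (which stands for itself and its reverse complement) is scored by the PBM enrichment score (E-score), a modified Wilcoxon-Mann-Whitney statistic from -0.5 to +0.5, computed with the Universal PBM Analysis Suite. Scale: above 0.35 generally sequence-specific binding.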

Going from GGAGGTAC to TCCCGCGA, the “PBM E-score” value rises from 0.00952 to 0.0149.

Going from ACTTATGC to GAGATATC, the “PBM E-score” value falls from 0.0622 to 0.0314.

Going from CGCCGTAG to CAAAACTC, the “PBM E-score” value falls from 0.0712 to -0.0729.

Compared with GGCGAACC, GCCCGCTA is higher in “PBM E-score” value: -0.0689 for the first, 0.0529 for the second.

Going from CGAATTAC to TGATGACA, the “PBM E-score” value falls from 0.162 to -0.108.

Going from AGGGTGCG to CGGGTCCA, the “PBM E-score” value falls from -0.158 to -0.194.

Going from CCGCGCGG to ACAATACA, the “PBM E-score” value falls from 0.107 to 0.0574.

First: ACCAATAC
Second: TTAACAAA
The “PBM E-score” value of the first is lower: 0.0919 for the first, 0.224 for the second.

Going from CGATACAA to AGAGAGCA, the “PBM E-score” value falls from 0.0776 to -0.067.

Compared with CACAAATA, GCGTCGCA is higher in “PBM E-score” value: -0.0613 for the first, 0.19 for the second.

First: CCCAGGAG
Second: CCAGGGCA
The “PBM E-score” value of the first is higher: -0.182 for the first, -0.19 for the second.

Compared with ACGGGATA, ATAAGGTC is lower in “PBM E-score” value: 0.156 for the first, 0.00487 for the second.

Compared with AGTACTTA, AGCCAACG is lower in “PBM E-score” value: 0.0953 for the first, -0.0177 for the second.

Going from AGCGAACT to GACATATC, the “PBM E-score” value falls from 0.0961 to -0.0405.

Going from CAGAACAA to CCTCGAGC, the “PBM E-score” value falls from 0.059 to 0.0464.

Going from AATGACCA to CGTGCACA, the “PBM E-score” value rises from -0.157 to -0.156.

Compared with AGTTCGAC, TCGGAAAA is higher in “PBM E-score” value: -0.161 for the first, 0.234 for the second.

Compared with GCTCCGCA, ATGCATTC is higher in “PBM E-score” value: -0.119 for the first, 0.0394 for the second.

Going from CCCTCGAA to GCAACTTA, the “PBM E-score” value rises from -0.0244 to 0.0374.

Going from ACCACTAC to GTGCTAAA, the “PBM E-score” value rises from -0.0851 to 0.0334.

Compared with CATAGCCG, AACAGCAT is higher in “PBM E-score” value: -0.286 for the first, -0.0641 for the second.

Going from ATAGGGCA to CCATACCG, the “PBM E-score” value rises from -0.339 to -0.0343.

First: TATGAATA
Second: AGTACCTA
The “PBM E-score” value of the first is higher: 0.0594 for the first, -0.109 for the second.

Going from AGTTAACA to GTAAACAC, the “PBM E-score” value rises from -9e-05 to 0.277.

Going from CACTTTCA to GCATGACC, the “PBM E-score” value falls from -0.151 to -0.263.

First: GACCGTCA
Second: CAGCCGGA
The “PBM E-score” value of the first is lower: -0.286 for the first, -0.0451 for the second.

Compared with AATACTGC, AGCTCGAA is higher in “PBM E-score” value: 0.0614 for the first, 0.0873 for the second.

Going from CAATGGCG to TCGAGGCA, the “PBM E-score” value rises from -0.141 to -0.015.

First: GTGCCGCA
Second: TCATTCCA
The “PBM E-score” value of the first is higher: -0.0154 for the first, -0.0256 for the second.

Going from TCGAATCA to GCCCACAA, the “PBM E-score” value rises from -0.0776 to -0.0313.

Going from ACGGCACC to ACTCCTTA, the “PBM E-score” value falls from 0.199 to -0.0363.

Going from CATTCCTA to AAGTATAA, the “PBM E-score” value rises from -0.0331 to 0.102.

First: CAGTTACC
Second: GATAAATC
The “PBM E-score” value of the first is lower: -0.0817 for the first, 0.0802 for the second.

Compared with ACGGGACT, ACCTAAGT is lower in “PBM E-score” value: 0.142 for the first, 0.00773 for the second.

Going from ATTGTCAA to AACTAACC, the “PBM E-score” value rises from 0.00499 to 0.168.

Compared with CGAGAGCC, GAAATGGC is lower in “PBM E-score” value: 0.0411 for the first, 0.0293 for the second.

Going from AAAAGCGC to CGTAGGGC, the “PBM E-score” value rises from -0.108 to 0.121.

Going from AATTGACA to CAGCGGTA, the “PBM E-score” value rises from -0.115 to 0.00894.

Going from CATAGAAG to ACGCCGCA, the “PBM E-score” value rises from -0.219 to 0.158.

Compared with TCCCTCCA, AGCCTAGA is higher in “PBM E-score” value: -0.196 for the first, -0.0726 for the second.

Going from GTGCGTAA to ACAAGAGC, the “PBM E-score” value falls from 0.211 to -0.125.

Compared with CAGACAGC, ATGTATTG is higher in “PBM E-score” value: -0.264 for the first, -0.0394 for the second.

First: AATTCCTG
Second: CTTCGCAC
The “PBM E-score” value of the first is lower: -0.147 for the first, 0.102 for the second.

First: TGGAACAA
Second: AATGCGCA
The “PBM E-score” value of the first is lower: 0.0155 for the first, 0.0579 for the second.

First: AGTTACGG
Second: GTCTCATA
The “PBM E-score” value of the first is higher: 0.0766 for the first, -0.0606 for the second.

Compared with CATTTTTC, TCACCACA is lower in “PBM E-score” value: 0.0327 for the first, -0.152 for the second.

First: ATTACAAA
Second: CAGGTATC
The “PBM E-score” value of the first is higher: 0.00437 for the first, -0.065 for the second.

First: AACAATAC
Second: AAATCCGC
The “PBM E-score” value of the first is higher: 0.185 for the first, -0.119 for the second.

Going from CGGCACAA to AGATGTTC, the “PBM E-score” value falls from -0.0958 to -0.217.

Compared with ACAATTCG, GACCCACA is lower in “PBM E-score” value: 0.167 for the first, 0.0499 for the second.

Compared with ATACGAAA, CCGCCCGA is lower in “PBM E-score” value: 0.47 for the first, -0.183 for the second.

Going from AGACCCTA to CAAGCCAC, the “PBM E-score” value rises from -0.224 to -0.159.

First: AAGTCTTC
Second: AAATACGC
The “PBM E-score” value of the first is lower: -0.115 for the first, 0.212 for the second.

First: ATTCAGCG
Second: CGCTGCAC
The “PBM E-score” value of the first is higher: 0.127 for the first, -0.0173 for the second.

First: GCCGTAAC
Second: CTGTTAAA
The “PBM E-score” value of the first is higher: 0.225 for the first, 0.0743 for the second.

First: AAATCGAG
Second: ACCAGGGG
The “PBM E-score” value of the first is higher: -0.011 for the first, -0.228 for the second.

Going from ACTAATAC to CCATGTAC, the “PBM E-score” value falls from 0.148 to 0.0673.

Compared with CGGCCTTC, GGTTTGTA is lower in “PBM E-score” value: 0.00408 for the first, -0.0874 for the second.

Going from ATGCAACA to CACAGTCG, the “PBM E-score” value rises from -0.0324 to 0.147.

First: AACCAGGG
Second: TATATCCA
The “PBM E-score” value of the first is lower: -0.0946 for the first, 0.00119 for the second.

First: GTAGGAAA
Second: GCTCCGTA
The “PBM E-score” value of the first is lower: -0.114 for the first, 0.349 for the second.

Going from ATATATAC to AGCTCCCG, the “PBM E-score” value falls from 0.265 to -0.113.

Going from CATTCAAA to AAAGCTGG, the “PBM E-score” value falls from -0.0367 to -0.155.

First: GTGTCAAC
Second: AGAATTTG
The “PBM E-score” value of the first is lower: -0.202 for the first, -0.00145 for the second.

Going from GCCTCAGA to CAACCCCG, the “PBM E-score” value falls from 0.0169 to -0.179.

Going from CGAACTCC to AACCCAGC, the “PBM E-score” value falls from 0.0746 to -0.148.

Going from GCCTATAA to GCGGACAC, the “PBM E-score” value falls from 0.0593 to -0.0631.

First: TACCGATA
Second: AGGGTTGG
The “PBM E-score” value of the first is higher: 0.226 for the first, -0.115 for the second.

First: CAATTTTA
Second: AATTGTCT
The “PBM E-score” value of the first is higher: 0.119 for the first, -0.00489 for the second.

First: AAGATGCT
Second: GCGACAGC
The “PBM E-score” value of the first is higher: 0.109 for the first, 0.079 for the second.

Compared with AAGAATGA, CCCGTCCG is lower in “PBM E-score” value: -0.114 for the first, -0.269 for the second.

Compared with CCAATCCA, ACTCCAGC is higher in “PBM E-score” value: -0.225 for the first, -0.0569 for the second.

First: ACCGTCAT
Second: ACCACTAG
The “PBM E-score” value of the first is lower: -0.18 for the first, -0.172 for the second.

Going from CCTCGACG to CGGCCCAG, the “PBM E-score” value rises from -0.194 to -0.0171.

Compared with CAGGGGTA, CGCTAGCG is higher in “PBM E-score” value: -0.167 for the first, 0.0519 for the second.

Compared with AACCTTGT, TCTTCCCA is lower in “PBM E-score” value: -0.16 for the first, -0.357 for the second.

First: CAAGCACG
Second: AACCCCAT
The “PBM E-score” value of the first is higher: 0.0717 for the first, -0.187 for the second.

Compared with GACTCCCC, GCGGCGTA is higher in “PBM E-score” value: -0.156 for the first, 0.227 for the second.

Going from AACCCCAC to ACGCGAAG, the “PBM E-score” value rises from -0.0684 to 0.154.

Going from AAACACGG to AGAGGGGG, the “PBM E-score” value falls from 0.0544 to -0.0797.

First: ACATGGCA
Second: ACATTGTG
The “PBM E-score” value of the first is higher: -0.00764 for the first, -0.243 for the second.

Compared with CAACCCGA, AAACTACC is lower in “PBM E-score” value: 0.198 for the first, -0.0984 for the second.

Compared with ATTAATTA, AGGAGTGA is lower in “PBM E-score” value: -0.0314 for the first, -0.156 for the second.

Compared with ACGTGGCC, CGTTTCGA is higher in “PBM E-score” value: 0.0339 for the first, 0.21 for the second.

Compared with CGAGGCAG, ATTTCAAC is lower in “PBM E-score” value: 0.152 for the first, -0.0478 for the second.

First: TCATGCGA
Second: AAGTTGGG
The “PBM E-score” value of the first is higher: 0.129 for the first, -0.158 for the second.
